Measured values taken from the supplement of paper PMC10338343.
± gives the standard deviation. The full ranking holds about 3,700 sequences; the median of “pre-steady-state target cleavage rate” is about 0.02, and the highest 2% start at about 0.23. This is a selection; strong and weak results do not stand in their true shares.

Tested on: MILI (PIWIL2) piRISC loaded with Kctd7 piRNA (26 nt)
Assay: pre-steady-state target cleavage rate (min^-1); MIWI and MILI are mouse PIWI proteins and EfPiwi is from a freshwater sponge; tags in brackets are library labels; higher = faster piRNA-guided slicing of the target
Conditions: guide: Kctd7 piRNA 5'p-UGUUAAUCUCUCAGAGAAGGUGACAG; auxiliary factor: 500 nM mouse GTSF1
Experimental: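 Cleave-'n-Seq: a library of target RNAs (target site embedded in constant flanks, ACAGCATTCCGCGTTAGTGATATCCG... 5' flank; DNA-blocked outside the site) at 0.1 nM was incubated with 1 nM active mouse MILI or MIWI piRISC (synthetic 5'-monophosphorylated piRNA guide) with or without 500 nM mouse GTSF1 at 33 °C for 1 min to 16 h. Uncleaved targets were sequenced and normalised to non-target controls, and the pooled three trials were fitted to a burst-and-steady-state model to give the pre-steady-state cleavage rate (min^-1; k3 is constrained to at most 1e-4). Sequence is the target site only; target names encode pairing extent (gX:gY) and contiguous / 1-mismatch / 2-mismatch / bulge geometry. Fits with R² ≤ 0 are excluded.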

Sequence | pre-steady-state target cleavage rate
UAGUGACAGAGCUUGUCUGAGAGAUUAACA | 0.078 ± 0.014
UAGUGUGUCACGUUCUCUGACAGAUUAACA | 0.0341 ± 0.0058
UAGUGACAGACCAUCUCUGAGAGAUUAACA | 0.0563 ± 0.0097
UAGUGACAGUCCUUCUGUGAGAGAAUAACA | 0.00447 ± 0.003
UAGUGUGUCACCUUCUCUGUGAGAUUUACA | 0.0554 ± 0.013
UAGUGACACACCAUCUCAGAGAGAUUAACA | 0.04 ± 0.0099
UAGUGACAGUCACUUCUCUGAGAGAUUAACA | 0.114 ± 0.011
UAGUGACAGUGCAUGUCUGAGAGAUUAACA | 0.00391 ± 0.0029
UAGUGACUCACCAUCUCUGAGAGAUUAAGA | 0.00889 ± 0.0033
UAGUGUGUCUCGUUCUCUGAGAGAUUAACA | 0.0972 ± 0.012
UAGUGACACACCUUCUCUGUAGAGAUUAACA | 0.00775 ± 0.0035
UAGUGACACACCUUCUCUGAGAGUAUAACA | 0.0621 ± 0.016
UAGUGAGUCACCUUCUCUGAGAGGUUAACA | 0.142 ± 0.019
UAGUGACAGACCUUGUCUGAGAGUUUAACA | 0.00958 ± 0.0044
UAGUGACACACCUUCUCGGAGAGAUUAACA | 0.0735 ± 0.0079
UAGUGACAGAGCUUCUCUGAGAGAUUAAGA | 0.00374 ± 0.0035
UAGUGAGUCACCUUCUCUGAGGGAUUAACA | 0.164 ± 0.02
UAGUGACUCACCUAUCUCUGAGAGAUUAACA | 0.151 ± 0.012
UAGUGACAGUGCUUCUGUGAGAGAUUUACA | 0.0118 ± 0.0044
UAGUGACUCUCCUUGUCUGAGAGAUUAACA | 0.0532 ± 0.014
UAGUGACUCACCAACUCUGAGAGAUUAAGA | 0.0119 ± 0.0036
UAGUGUGAGACCUUCUCUGAGAGAUUAAGA | 0.0278 ± 0.012
UAGUGACAGUGGUUCUCUGAGAGAUGUAACA | < 0.0001
UAGUGACAGUGGAACUCUGAGUCAUUAACA | 0.0129 ± 0.0098
UAGUGUCACACCUUCUCUGAGAGAUUAUGA | 0.0704 ± 0.025

Sequence | pre-steady-state target cleavage rate
UAGUGAGUGACCUUCUCUGAGAGUUUAACA | 0.137 ± 0.03
UAGUGUGUCACCUUCUGAGAGAGAUAUUGA | 0.00647 ± 0.0056
UAGUCUGUCUCCUUCUGUGAGAGAUUAACA | 0.139 ± 0.011
UAGUGACUCCACCUUCUCUGAGAGAUUAACA | 0.163 ± 0.017
UAGUGACAGACCUUCUCUGAGAGGAUUAACA | 0.0736 ± 0.014
UAGUCUGUCACGUUCUCUGAGAGAUUAUGA | 0.0171 ± 0.0039
UAGUGACAGUGGUUUUCUGAGAGAUUAACA | 0.0108 ± 0.0021
UAGUGACAGACCGUCUCUGAGAGAUUAACA | 0.0355 ± 0.0065
UAGUCUGUCACCUUCUCUGAGACAUUAACA | 0.0601 ± 0.0083
UAGUGACACACCUUCUCUCAGAGUUUAACA | 0.0247 ± 0.0063
UAGUGACAGUGGAACUCUGACAGAUUUACA | < 0.0001
UAGUGACACGCCUUCUCUGAGAGAUUAACA | 0.109 ± 0.011
UAGUGUGUCACCCUCUCUGAGAGAUUAACA | 0.174 ± 0.016
UAGUGACUCACCUUGUCUCAGAGAUUAACA | 0.0125 ± 0.0048
UAGUGUCUCACCUUCUCUGAGAGAUAAACA | 0.11 ± 0.024
UAGUGUGUCACCAUCUGUGAGAGAUUAACA | 0.0988 ± 0.0072
UAGUGAGUCACCAUCUCUGAGACAUUAACA | 0.0534 ± 0.01
UAGUGACACAGGAUCUCUGAGAGAUUAAGA | 0.0041 ± 0.0014
UAGUGACAGUCCUUCUCUGAGAGACUUAACA | 0.0183 ± 0.0042
UAGUGACAGUGGAAGAGACAGACGAUUAACA | < 0.0001
UAGUGAGUCACCUACUCUGAGACAUUAACA | 0.0334 ± 0.0096
UAGUGUGUCACCUUCUCUGAGAGAUGAACA | 0.0242 ± 0.0097
UAGUCUGACACCUUCUCUGAGAGAUUAACA | 0.17 ± 0.0062
UAGUGACAGACCUACUCUCAGAGAUUAACA | 0.0109 ± 0.0036
UAGUCUGUCACCUUCUCUCAGAGAUAAACA | 0.0231 ± 0.0064

Sequence | pre-steady-state target cleavage rate
UAGUGUGUCAGCUUCUCUGAGAGAUAAACA | 0.0585 ± 0.014
UAGUGUGUCACCUACUCUGAGACAUUAACA | 0.0742 ± 0.019
UAGUCUGUCUGCUUCUCUGAGAGAUUAACA | 0.185 ± 0.0094
UAGUGACACACCUUCUCUCAGAGAAUAACA | 0.00502 ± 0.004
UAGUGAGUCACCUUCUCUGAGAGUUAUUGA | 0.157 ± 0.052
UAGUCUGUCACCGUCUCUGAGAGAUUAACA | 0.185 ± 0.007
UAGUGACAGUGCUUGUCUGAGAGAUUAUCA | 0.0051 ± 0.004
UAGUGUGUCACCUUCUCUGACGAGAUUAACA | 0.028 ± 0.0098
UAGUGUGUCUCCUUCUCUCAGAGAUUAACA | 0.0458 ± 0.0086
UAGUGACAGAGGUUCUCUGAGAGAUUAACA | 0.00696 ± 0.0019
UAGUGACUCUCCUUCUGUGAGAGAUUAACA | 0.0558 ± 0.01
UAGUGUGUCACGUUCUCUGAGAGAUUAAGA | 0.0734 ± 0.014
UAGUGAGUCACCAAGUCUGAGAGAUUAACA | 0.0788 ± 0.0089
UAGUGACAGUGCUUCUGUGAGAGAUUAACA | 0.0383 ± 0.01
UAGUGACUCACCUUCACUGAGAGAUAUUGA | 0.00634 ± 0.004
UAGUGACAGACCUUCUCUGAGAGAUUAAUA | 0.0662 ± 0.015
UAGUGUGUCUGCUUCUCUGAGAGAUUAAGA | 0.0516 ± 0.008
UAGUGACAGAGCUUCUCUGAGACAUUAACA | 0.0126 ± 0.0038
UAGUGACUCACCAUCUCUGAGAGAUUAUCA | 0.095 ± 0.019
UAGUGAGUCACCUUCUCUGUAGAGAUUAACA | 0.00499 ± 0.0036
UAGUGACACACCUUGUGUGAGAGAUUAACA | 0.0804 ± 0.011
UAGUGACAGUGCUUCUCUGAGUGAUUUACA | < 0.0001
UAGUGACAGUGCUUCUCUGAGGAGAUUAACA | 0.00233 ± 0.0023
